{"source": "the supplement of paper PMC3334620", "note": "The full ranking holds about 33,000 sequences; the median of “E-score (-0.5 to 0.5)” is about -0.01, and the highest 2% start at about 0.26. Some of the results follow.", "data": [{"target": "Ste12 (UniProt P13574)", "experiment": "PBM E-score (8-mer binding enrichment) (E-score (-0.5 to 0.5)); higher = stronger / more preferred TF binding; most listed sequences are background and not binding sites", "conditions": "protein concentration: 200 nM; construct: GST-DNA-binding domain", "description": "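Universal 'all 10-mer' protein binding microarrays (Agilent AMADID 015681) probed with GST-tagged S. cerevisiae TFs (full-length or DBD) made by in vitro transcription/translation (PURExpress), about 100-200 nM. Bound TF was detected with fluorescent anti-GST. Each ungapped 8-mer (which stands for itself and its reverse complement) is scored by the PBM enrichment score (E-score), a modified Wilcoxon-Mann-Whitney statistic from -0.5 to +0.5, computed with the Universal PBM Analysis Suite. Scale: above 0.35 generally sequence-specific binding.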", "values": [{"sequence": "GACCCTGC", "PBM E-score": -0.0571}, {"sequence": "AGGGATAA", "PBM E-score": 0.182}, {"sequence": "GCCGCCGA", "PBM E-score": 0.0391}, {"sequence": "ATTCACGA", "PBM E-score": 0.0731}, {"sequence": "CGGTAGGA", "PBM E-score": -0.167}, {"sequence": "ACTAGTCT", "PBM E-score": -0.00065}, {"sequence": "AATGGAGA", "PBM E-score": -0.0154}, {"sequence": "AGGCAAAG", "PBM E-score": -0.0376}, {"sequence": "ATTTGTTG", "PBM E-score": 0.181}, {"sequence": "AAACGGAG", "PBM E-score": 0.0885}, {"sequence": "CAACTTAG", "PBM E-score": 0.106}, {"sequence": "GATTGTAA", "PBM E-score": 0.167}, {"sequence": "ACGACGAG", "PBM E-score": -0.137}, {"sequence": "AAGCTATT", "PBM E-score": -0.103}, {"sequence": "CTGTTATA", "PBM E-score": 0.105}, {"sequence": "CCTGCGTC", "PBM E-score": -0.192}, {"sequence": "AACAAACA", "PBM E-score": 0.269}, {"sequence": "AAATTTAG", "PBM E-score": 0.169}, {"sequence": "GCCAACGA", "PBM E-score": 0.0515}, {"sequence": "CCGGAGCG", "PBM E-score": 0.119}, {"sequence": "CAACGGGC", "PBM E-score": 0.0406}, {"sequence": "GACGGTCC", "PBM E-score": -0.25}, {"sequence": "ACAAGTTG", "PBM E-score": 0.0796}, {"sequence": "GATGTTCA", "PBM E-score": -0.181}, {"sequence": "ATGGGCGC", "PBM E-score": 0.038}, {"sequence": "GGTAAGCA", "PBM E-score": -0.0119}, {"sequence": "ACGGGTTG", "PBM E-score": -0.246}, {"sequence": "AAACCCCT", "PBM E-score": -0.0815}, {"sequence": "ATTAGAAC", "PBM E-score": 0.131}, {"sequence": "ACATGAGA", "PBM E-score": 0.208}, {"sequence": "AGCACGCA", "PBM E-score": -0.187}, {"sequence": "TCTGTTAA", "PBM E-score": 0.0508}, {"sequence": "TGCATCCA", "PBM E-score": -0.0478}, {"sequence": "TCAGGGCA", "PBM E-score": -0.0383}, {"sequence": "ACTACGCT", "PBM E-score": -0.0983}, {"sequence": "GCACACCC", "PBM E-score": -0.0896}, {"sequence": "CTACGCCA", "PBM E-score": -0.235}, {"sequence": "CCGAAGTC", "PBM E-score": -0.149}, {"sequence": "ACGCTAGT", "PBM E-score": 0.0183}, {"sequence": "CGGTGGCC", "PBM E-score": -0.0746}, {"sequence": "AAAAACTG", "PBM E-score": 0.166}, {"sequence": "CGGCAGGA", "PBM E-score": -0.125}, {"sequence": "GAGGCTAA", "PBM E-score": 0.0402}, {"sequence": "CCCGCAAC", "PBM E-score": 0.00366}, {"sequence": "TAGATGAA", "PBM E-score": 0.279}, {"sequence": "CGGAAGAA", "PBM E-score": 0.0583}, {"sequence": "CTACTGCC", "PBM E-score": -0.123}, {"sequence": "GCCCTTGA", "PBM E-score": -0.21}, {"sequence": "CAACCTCA", "PBM E-score": -0.0257}, {"sequence": "TACGAACA", "PBM E-score": -0.0323}, {"sequence": "CAAATTGA", "PBM E-score": 0.0569}, {"sequence": "AAGCCTCT", "PBM E-score": -0.291}, {"sequence": "AAGGTGAG", "PBM E-score": 0.00195}, {"sequence": "AAGCTGCA", "PBM E-score": -0.00781}, {"sequence": "ACGGGCTC", "PBM E-score": -0.242}, {"sequence": "AGGCACAA", "PBM E-score": 0.0987}, {"sequence": "AGAGATCT", "PBM E-score": -0.0264}, {"sequence": "GAACCGTC", "PBM E-score": 0.0624}, {"sequence": "GAGTTACC", "PBM E-score": -0.157}, {"sequence": "ACGGTTCA", "PBM E-score": -0.186}, {"sequence": "CAGAGCTC", "PBM E-score": -0.223}, {"sequence": "GCGCGACA", "PBM E-score": 0.173}, {"sequence": "GCACCAAC", "PBM E-score": -0.122}, {"sequence": "CAGCATAC", "PBM E-score": -0.0358}, {"sequence": "CCCCACTA", "PBM E-score": -0.0573}, {"sequence": "AGACGCGG", "PBM E-score": 0.0721}, {"sequence": "GGGAATGA", "PBM E-score": 0.228}, {"sequence": "GAGGTGCC", "PBM E-score": -0.141}, {"sequence": "GCCACTTA", "PBM E-score": -0.174}, {"sequence": "TACGACTA", "PBM E-score": -0.143}, {"sequence": "ATCTATTG", "PBM E-score": 0.102}, {"sequence": "CCCGTGCG", "PBM E-score": -0.0378}, {"sequence": "GGCTAGCA", "PBM E-score": -0.0527}, {"sequence": "ACCAGATC", "PBM E-score": 0.0912}, {"sequence": "CATGACCA", "PBM E-score": -0.0804}, {"sequence": "ATAATCAT", "PBM E-score": 0.185}, {"sequence": "CTATGCGA", "PBM E-score": 0.00611}, {"sequence": "CCTTGAGA", "PBM E-score": -0.0427}, {"sequence": "AACTTAAT", "PBM E-score": 0.169}, {"sequence": "ACATAGTA", "PBM E-score": 0.118}, {"sequence": "AACATATG", "PBM E-score": 0.114}, {"sequence": "AGGGTAAA", "PBM E-score": 0.165}, {"sequence": "CCAATCAA", "PBM E-score": -0.0271}, {"sequence": "AAGGCGGC", "PBM E-score": -0.0929}, {"sequence": "AGGGCAAT", "PBM E-score": -0.123}, {"sequence": "AAGGAAAA", "PBM E-score": 0.164}, {"sequence": "CCAGTATC", "PBM E-score": 0.0407}, {"sequence": "GAGTGTAA", "PBM E-score": 0.127}, {"sequence": "AGGGAACC", "PBM E-score": -0.111}, {"sequence": "CGATCCTA", "PBM E-score": -0.027}, {"sequence": "GAGCTCGC", "PBM E-score": -0.0349}, {"sequence": "ACAACGCG", "PBM E-score": 0.12}, {"sequence": "AAGCACCC", "PBM E-score": -0.204}, {"sequence": "CACGGTTC", "PBM E-score": -0.204}, {"sequence": "CCGAATTA", "PBM E-score": 0.104}, {"sequence": "GATCGTCC", "PBM E-score": -0.0224}, {"sequence": "ACTACGTC", "PBM E-score": -0.295}, {"sequence": "CTTGCCCC", "PBM E-score": -0.124}, {"sequence": "GAATGGGA", "PBM E-score": -0.0412}, {"sequence": "ATATCTTC", "PBM E-score": 0.205}, {"sequence": "CATAATCC", "PBM E-score": 0.162}, {"sequence": "AGAACAGG", "PBM E-score": -0.221}, {"sequence": "TTGTTAAA", "PBM E-score": 0.221}, {"sequence": "GCGCAGTA", "PBM E-score": 0.147}, {"sequence": "GGTGTCGA", "PBM E-score": 0.0194}, {"sequence": "CTGAGGAC", "PBM E-score": -0.173}, {"sequence": "ACATCTGC", "PBM E-score": -0.131}, {"sequence": "ATCGAACG", "PBM E-score": 0.0505}, {"sequence": "AAATATGA", "PBM E-score": 0.308}, {"sequence": "ATGACGCC", "PBM E-score": -0.11}, {"sequence": "ACCTACCT", "PBM E-score": 0.0101}, {"sequence": "AACGCCGG", "PBM E-score": 0.0581}, {"sequence": "AAGTGTGT", "PBM E-score": 0.0841}, {"sequence": "GGAAAGGA", "PBM E-score": 0.0506}, {"sequence": "GACCTAAC", "PBM E-score": -0.078}, {"sequence": "CTTCTCGA", "PBM E-score": -0.193}, {"sequence": "CTAAACGA", "PBM E-score": 0.00236}, {"sequence": "CATATAGA", "PBM E-score": -0.0222}, {"sequence": "ATCTGGTG", "PBM E-score": 0.0672}, {"sequence": "AGTCTGAT", "PBM E-score": -0.0115}, {"sequence": "CGAGGACA", "PBM E-score": -0.0668}, {"sequence": "GAGACACC", "PBM E-score": -0.0695}, {"sequence": "GCCGATGA", "PBM E-score": -0.153}, {"sequence": "GGCTTCAC", "PBM E-score": -0.244}, {"sequence": "ATGCCCAA", "PBM E-score": -0.0251}, {"sequence": "ACGCGATC", "PBM E-score": -0.0567}, {"sequence": "CTTTCCCC", "PBM E-score": 0.162}, {"sequence": "ACTGAAAC", "PBM E-score": 0.477}, {"sequence": "ACACAAAA", "PBM E-score": 0.26}, {"sequence": "CCGTCAGA", "PBM E-score": 0.00778}, {"sequence": "CCGCCGGC", "PBM E-score": 0.167}, {"sequence": "ATGTTGTA", "PBM E-score": -0.00602}, {"sequence": "AGCTGCTG", "PBM E-score": -0.172}, {"sequence": "AACCTAGT", "PBM E-score": 0.0524}, {"sequence": "ATTTTTAC", "PBM E-score": 0.207}, {"sequence": "ACTGTGTG", "PBM E-score": 0.0733}, {"sequence": "GCGTAGAA", "PBM E-score": -0.125}, {"sequence": "CACGACCC", "PBM E-score": -0.0704}, {"sequence": "CGTCTATA", "PBM E-score": 0.00887}, {"sequence": "ACAGTAGT", "PBM E-score": 0.0635}, {"sequence": "AATGACCG", "PBM E-score": -0.0728}, {"sequence": "GCTGATAC", "PBM E-score": 0.0886}, {"sequence": "CCCCAGGA", "PBM E-score": -0.116}, {"sequence": "CCGTCGAC", "PBM E-score": 0.0574}, {"sequence": "ATACCCAA", "PBM E-score": 0.132}, {"sequence": "AATGGCAC", "PBM E-score": 0.0265}, {"sequence": "GTCCCCAA", "PBM E-score": -0.132}, {"sequence": "GCAGGTAA", "PBM E-score": 0.0649}, {"sequence": "ACGTTGAC", "PBM E-score": -0.132}, {"sequence": "CAAGGCGG", "PBM E-score": -0.0455}, {"sequence": "AGAAGCTA", "PBM E-score": -0.0882}, {"sequence": "AATGCGCG", "PBM E-score": 0.00894}, {"sequence": "GTGGTAGA", "PBM E-score": -0.0374}, {"sequence": "CTCGCGCA", "PBM E-score": -0.126}, {"sequence": "ACACGCCT", "PBM E-score": -0.0826}, {"sequence": "ATCTGCTA", "PBM E-score": 0.0482}, {"sequence": "TAATCACA", "PBM E-score": 0.038}, {"sequence": "ACCTTAAG", "PBM E-score": 0.106}, {"sequence": "CCCCGAAA", "PBM E-score": 0.0573}, {"sequence": "AATCGTCG", "PBM E-score": -0.118}, {"sequence": "ACGAAAGC", "PBM E-score": -0.00831}, {"sequence": "ATGAACCG", "PBM E-score": -0.0284}, {"sequence": "CGACCCCC", "PBM E-score": -0.081}, {"sequence": "GAGGTCAC", "PBM E-score": -0.049}, {"sequence": "CCACAGAC", "PBM E-score": -0.151}, {"sequence": "GGACTCAC", "PBM E-score": -0.292}, {"sequence": "ACCGGTGG", "PBM E-score": -0.134}, {"sequence": "TAGGCAAA", "PBM E-score": -0.00319}, {"sequence": "AAAGGCGG", "PBM E-score": -0.0661}, {"sequence": "ATTCCCAC", "PBM E-score": 0.0371}, {"sequence": "AATGAGGC", "PBM E-score": -0.135}, {"sequence": "GCAATCAC", "PBM E-score": -0.0086}]}]}
